Out of some 44,000 compounds screened, about 340 (0.77%) were called active. About 5% were inconclusive and are not listed. Calls follow the shape of the dose curve; as a rule, active = well fitted inhibition curve with a large enough effect; inconclusive = small, poorly fitted or top-dose-only effect; inactive = flat fitted curve, though single readings scatter. Some of the results follow.
Experiment: Acumen qHTS Assay for Inhibitors of the mTORC1 Signaling Pathway in MEF (Tsc2-/-, p53-/-) Cells: Sytravon;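 also: plate controls were DMSO for no effect and rapamycin for full effect; nearly all actives have a fitted effect of over 50% in size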
Conditions: phospho-rpS6 immunofluorescence/PI, 24 h; series mostly up to 38.3 µM; activity change, negative = inhibition: at the top concentration
Summary of the method: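 Compounds act on Tsc2-/-, p53-/- fibroblasts carrying an empty vector for 24 h before fixation and dual staining for phospho-S6 and DNA (propidium iodide). Values are percentages of cells above a rapamycin-defined pS6/PI threshold.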

Activity change, negative = inhibition, inactive:
Cc1noc(/C=C/c2cccs2)c1S(=O)(=O)N1CCC(C(=O)Nc2ccc(F)c(Cl)c2)CC1 -22.9%
Cc1cccc(N2CCN(c3ncnc4c3nc3n4CCCCC3)CC2)c1C 1.2%
CCOC(=O)c1ccc(NC(=O)c2c(-c3c(F)cccc3Cl)noc2C)cc1 -17.1%
CCC(=O)N1CCc2cc(Br)cc(S(=O)(=O)N3CCC(C(=O)NCCCOC(C)C)CC3)c21 2.83%
COC(=O)c1ccccc1NC(=O)c1ccc(COc2ccccc2Cl)o1 18.3%
COc1ccc(C2CC(=O)c3cc(-c4nc(-c5cccc(Cl)c5)cs4)c(=O)[nH]c3C2)cc1OC (stereo unspecified) 1.42%
CCOc1ccc(NC(=O)c2ccc(NC(=O)N3CCSc4ncccc43)cc2)cc1 -6.66%
CSc1ncc2c(n1)-c1ccccc1N(Cc1ccc(Cl)cc1)S2(=O)=O 5.75%
CCOC(=O)c1cnn(-c2ccc(C(=O)Nc3cc(OC)c(OC)c(OC)c3)cc2)c1N 0.628%
O=C(CSc1ccccc1)N1CCc2c([nH]c3ccccc23)C1c1ccc(F)cc1 (stereo unspecified) 2.7%
CC1CCN(S(=O)(=O)c2cn(CC(=O)Nc3cccc(C(F)(F)F)c3)c(=O)c3ccccc23)CC1 1.14%
O=C(Cn1cc(C(=O)c2ccco2)c2ccccc21)Nc1ccc(Br)cc1 8.64%
Nc1c(-c2nc(-c3cccs3)no2)nnn1-c1ccc(Cl)cc1 -2.72%
COc1cccc(C(=O)Nc2cccc(C(=O)OCc3cc(=O)n4nc(C5CC5)sc4n3)c2)c1 0%
CCn1c(C(=O)NCCc2ccc(OC)c(OC)c2)cc2sc(Cl)cc21 -5.3%
COC(=O)c1cc2oc3ccccc3c2n1Cc1nc(-c2ccc(OC)cc2)oc1C 1.01%
CCC1CCCCN1C(=O)Cn1c(=O)n(CCCCCC(=O)NCc2ccccc2)c(=O)c2sccc21 (stereo unspecified) -7.36%
CSc1ncc(Cl)c(C(=O)Nc2ccc(NC(C)=O)cc2)n1 2.73%
COc1ccc(Cl)cc1NC(=O)c1c(NCc2ccc(C)o2)sc2c1CCCCC2 -5.99%
CCCCNc1nc(Oc2ccc(OCC)nn2)nc(N2CCOCC2)n1 1.7%
COc1cccc(NC(=O)c2ccc3nc(CCc4ccccc4)oc3c2)c1 -8.44%
CCCn1c2ccccc2c2cnn(CC(=O)N(C)c3ccc(F)cc3)c(=O)c21 0.0836%
COc1cccc(CSc2nc3ccccc3c3nc(CCn4c(C)nc5ccccc54)nn23)c1 -4.03%
Cc1ccc(-n2ncc(C(=O)NCc3ccccc3C)c2-n2cccc2)cc1 -4.64%
O=C(NCc1ccc2c(c1)CCN2C(=O)c1ccc(F)cc1)c1cc2ccccc2[nH]1 -7.09%
COc1ccc(-c2[nH]c3ccccc3c2SCCNC(=O)c2cc(OC)c(OC)c(OC)c2)cc1 1.35%
COc1ccccc1CNC(=O)CCC(=O)N1CC2CCCN2c2ccccc21 (stereo unspecified) -2.81%
COc1ccc(SCc2cc(=O)c3cc(Cl)ccc3[nH]2)cc1 -14.4%
c1ccc(CNc2nc3c(-c4ccccc4)nnn3c3ccccc23)cc1 -12%
O=C(Cc1ccc(Cl)cc1)Nc1ccc2nn(-c3ccc(Cl)cc3)nc2c1 -7.33%
Cc1cccc(C)c1OCCn1c(C2CC(=O)N(c3cccc(Cl)c3)C2)nc2ccccc21 (stereo unspecified) 1.38%
COc1cccc(NC(=O)C2CCCN(S(=O)(=O)c3c(C)nn(C)c3C)C2)c1 (stereo unspecified) -11.1%
CCc1ccccc1N1C(=O)N(Cc2ccc(C#N)cc2)c2ccccc2S1(=O)=O -0.132%
CC(C)Sc1oc(-c2cccs2)nc1S(=O)(=O)c1ccc(Cl)cc1 -29.1%
CCOc1ccc(OCC)c(NS(=O)(=O)c2cc(-c3cc(C)no3)ccc2C)c1 -3.56%
Cc1ccc(CNC(=O)c2ccc(Cn3c(=O)c4ccccc4n(CC(=O)Nc4ccc(C)cc4C)c3=O)cc2)cc1 -2.52%
CCOc1ccc(S(=O)(=O)NCCc2sc3nc(-c4ccc(F)cc4)nn3c2C)cc1 -6.75%
CCn1c2ccccc2c2cc(CN3CCN(Cc4ccccc4F)CC3)ccc21 -9.36%
CCOc1ccccc1NC(=O)C(=O)NCCc1sc(-c2cccc(F)c2)nc1C 2.4%
CCc1ccc(NCc2cc3cc4c(cc3n(CC(=O)Nc3ccc(C)cc3)c2=O)OCO4)cc1 -5.11%
CCC(=O)Oc1ccc(/C=C(\C#N)c2nc3ccccc3[nH]2)cc1OC 16.2%
Cc1oc2ncnc(N3CCCCC3)c2c1C(=O)N1CCN(c2cccc(C(F)(F)F)c2)CC1 1.72%
CCOc1ccc(NC(=O)NCc2c(-n3cccc3)sc3c2CCCC3)cc1 -1.75%
Cc1ccc(Nc2c(-c3cccs3)nc3nc(C)cc(C)n23)cc1 -3.39%
CCOc1ccc(NC(=O)C2CCCN(S(=O)(=O)c3cccc4nonc34)C2)cc1 (stereo unspecified) 0.777%
CC(=O)c1ccc(NC(=O)CSc2nnc3ccc(-c4ccc(Cl)cc4)nn23)cc1 -0.529%
CCOc1ccc(NC(=O)CSc2nccn2Cc2ccco2)cc1 -3.29%
COc1ccc(-c2nc3ccccc3s2)cc1NC(=O)COc1ccc(C)cc1 0.197%
CCC1CCCCN1S(=O)(=O)c1ccc(C(=O)Nc2sc3c(c2C(=O)NC)CCC3)cc1 (stereo unspecified) -2.88%
CCOCCCN1C(=O)CN(C2CCCCCC2)C(=O)C1c1ccc(OC(C)C)c(OC)c1 (stereo unspecified) 3.06%
COc1ccc(OCC(=O)OCc2cc(=O)n3cc(C)sc3n2)cc1 -3.5%
CCc1ccccc1NC(=O)c1ccc2c(O)c(S(=O)(=O)c3ccccc3)c(=O)[nH]c2c1 -1.96%
COc1ccc(NC(=O)c2cc3nc(-c4ccc(C)c(C)c4)cc(C(F)(F)F)n3n2)cc1 7.71%
COc1ccccc1CNC(=O)c1oc2ccc(S(=O)(=O)N3CCCCC3)cc2c1C 7.04%
Cc1ccc(CSc2ncc(Cl)c(C(=O)NCCc3ccc(S(N)(=O)=O)cc3)n2)cc1 -4.01%
CCOC(=O)C1CCN(C(=O)CCS(=O)(=O)c2cc3c(cc2Cl)NC(=O)CO3)CC1 9.68%
Cc1ccc(N(CC(=O)NCc2ccc(Cl)cc2)S(=O)(=O)N(C)C)cc1 0.909%
COc1ccc(NC(=O)CSc2nc(-c3ccc(OC)cc3)[nH]c2-c2ccc(OC)cc2)cc1 2.42%
COc1ccc(-c2cc(OC(=O)c3ccc(Cl)cc3)c3c(C)oc(C)c3c(=O)c2)cc1 -1.28%
Cc1ccc(C(=O)Nc2cccc(-c3nc4cccnc4s3)c2C)cc1 5.63%
Cc1cccc(CN2C(=O)c3ccccc3S(=O)(=O)c3ccc(C(=O)NCCC4=CCCCC4)cc32)c1 0.995%

From PubChem BioAssay AID493208 (National Center for Advancing Translational Sciences (NCATS), 2011)
